In PubChem BioAssay AID1476 (National Center for Advancing Translational Sciences (NCATS), 2009):
Several values for one entry are separate records, joined by “and”; a condition that tells them apart may be missing. Identical values can stand only once. The campaign covered roughly 200,000 compounds. About 4,500 (2.2%) were called active. Inconclusive means that the source gave no clear call. Such entries were picked first, then a sample of the others. Calls come from the whole dose curve; as a rule, active = well fitted inhibition curve with a large enough effect; inconclusive = small, poorly fitted or top-dose-only effect, or effect the other way; inactive = flat fitted curve, though single readings scatter. Potencies of inconclusive entries are doubtful fits and often do not repeat.
Note: nearly all actives have a fitted effect of over 40% in size.
Potency is the fitted concentration of half-maximal effect; tags give direction and shape of the fitted curve.
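Throughout, for max response, negative = inhibition: plate controls were enzyme without inhibitor for no effect and buffer without enzyme for full effect.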

The molecules below were run against Cruzipain (Trypanosoma cruzi) (UniProt P25779) (assay: qHTS Assay for Promiscuous and Specific Inhibitors of Cruzain (without detergent)). Settings: purified cruzain, Z-FR-AMC fluorescence, no detergent.
Sequence of UniProt P25779 (P25779 whole entry, looked up): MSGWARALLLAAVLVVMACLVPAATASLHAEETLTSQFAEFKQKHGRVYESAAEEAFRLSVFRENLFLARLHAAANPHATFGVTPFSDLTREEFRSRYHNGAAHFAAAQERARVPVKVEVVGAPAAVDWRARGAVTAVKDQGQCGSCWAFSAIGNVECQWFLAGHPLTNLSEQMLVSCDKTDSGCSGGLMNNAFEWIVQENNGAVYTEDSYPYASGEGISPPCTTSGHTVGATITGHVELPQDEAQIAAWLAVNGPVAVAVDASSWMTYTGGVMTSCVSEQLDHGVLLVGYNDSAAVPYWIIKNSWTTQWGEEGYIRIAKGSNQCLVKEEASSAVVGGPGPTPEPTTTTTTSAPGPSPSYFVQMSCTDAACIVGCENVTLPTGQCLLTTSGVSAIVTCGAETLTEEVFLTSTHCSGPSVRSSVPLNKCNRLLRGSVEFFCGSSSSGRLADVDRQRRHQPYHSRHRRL
How it was run: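 Detergent-free condition (0.00005% Triton X-100) in acetate buffer pH 5.5 with DTT. 1.5 nM enzyme and compound were pre-mixed 15 min, then 2 uM Z-FR-AMC substrate added; reaction progress from fluorescence change between first and third reads (60 s).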
With `COC(=O)C1=C(C)Nc2ncnn2C1c1ccc(OC(=O)c2ccccc2)cc1` (stereo not given) the Potency was inconclusive: 31.6 µM [inhibitor, single point].
For `CCOc1nc(NC2CCCCC2)nc(NC(C)(C)C)n1`, the max response, negative = inhibition was inactive: -8.87%.
With `O=C(NC(=S)Nc1ccccc1N1CCOCC1)c1sc2ccccc2c1Cl` the Potency was active: 10 µM.
For `COc1ccc(OC)c(Nc2nc(-c3cccs3)cs2)c1`, the Potency was inconclusive: 25.1 µM [inhibitor, single point].
`CCN(CC)S(=O)(=O)c1ccc(C)c(NC(=O)COc2ccc(Cl)cc2Br)c1` was tested, and the Potency was inconclusive: 39.8 µM [inhibitor, single point].
`Cc1ccc(CNc2ccc3c(c2)OCO3)cc1` was tested, and the Potency was active: 25.1 µM.
With `c1ccc2c(c1)c1cccc3ccc4cccc2c4c31` the Potency was active: 15.8 µM.
`CCN(CC)c1ccc(C=C(c2nnnn2-c2ccccc2)c2nnnn2-c2ccccc2)cc1` was tested, and the Potency was inconclusive: 31.6 µM [inhibitor, single point].
In the case of `Cc1ccc(NC(=O)CSc2nc3ccc(NC(=O)c4cccs4)cc3s2)c(C)c1`, the Potency was inconclusive: 6.31 µM [inhibitor, single point].
With `COc1cccc(Cn2c(=O)n(-c3cccc(Cl)c3C)c(=O)c3c4c(sc32)CN(C(C)=O)CC4)c1` the Potency was inconclusive: 31.6 µM [activator, single point].
`Cc1ccc(S(=O)(=O)NC2c3cccc4cccc(c34)C2Sc2ncccn2)cc1` (stereo not given) was tested, and the Potency was inconclusive: 39.8 µM [inhibitor, single point].
`Cc1ccc(O)c(C2=Nc3ccccc3N=C(c3ccc([N+](=O)[O-])cc3)C2)c1` was tested, and the Potency was active: 20 µM.
`COc1ccc(/C=N/NC(=O)C(=O)/C=C2\NC3(CCCC3)Cc3ccccc32)cc1` was tested, and the Potency was inconclusive: 31.6 µM [inhibitor, single point].
In the case of `CCOC(=O)c1sc(C)c2c(=O)n(Cc3ccc(Cl)cc3)c(C)nc12`, the Potency was inconclusive: 39.8 µM [activator, single point].
With `CC(C)(C)C(=O)C1C(=O)c2ccccc2C1=O` the max response, negative = inhibition was inactive: -13.2%.
With `CC1CN(c2ncnc3c2cnn3-c2ccc(Cl)cc2)CC(C)O1` (stereo not given) the Potency was inconclusive: 39.8 µM [activator, single point].
`CCOC(=O)N1CCN(c2nc(-c3cccc(OC)c3)cc(C(F)(F)F)n2)CC1` was tested, and the Potency was inconclusive: 20 µM [activator, single point].
For `CC(C)CC(C(=O)O)N1C(=O)C2C3CC(C2C1=O)C1C(c2ccccc2)c2sc(=O)[nH]c2SC31` (stereo not given), the Potency was inconclusive: 39.8 µM [activator, single point].
With `CCc1ccc(CNC(=O)CCc2c(C)nn(-c3ccc(N4CCCCC4)nn3)c2C)cc1` the max response, negative = inhibition was inactive: 14.5%.
`CCc1ccc2occ(CC(=O)Nc3c(C(=O)Nc4ccc(OC)cc4)oc4ccccc34)c2c1` was tested, and the max response, negative = inhibition was inactive: -5.63%.
In the case of `COc1cccc(CN2CCSCC2)c1`, the max response, negative = inhibition was inactive: -0.0978%.
With `CCC(Nc1ccc(-c2nc(-c3ccco3)no2)cc1[N+](=O)[O-])c1ccccc1` (stereo not given) the Potency was inconclusive: 25.1 µM [inhibitor, single point].
With `CC(C)CC(=O)NC(NC(=S)Nc1sc2c(c1C#N)CCCC2)C(Cl)(Cl)Cl` (stereo not given) the Potency was inconclusive: 31.6 µM [inhibitor, single point].
`O=C(N/N=C/c1nn(-c2ccccc2)cc1-c1ccccc1)c1ccncc1` was tested, and the Potency was inconclusive: 31.6 µM [activator, single point].
With `CC(=O)Nc1nc(CCC(C)C)cc2c1c(=O)oc1ccccc12` the Potency was inconclusive: 1.26 µM [inhibitor, single point].
`Cc1cc(=O)oc2c(O)c(O)ccc12` was tested, and the max response, negative = inhibition was inactive: -18.6%.
In the case of `COc1ccc(-c2c(C#N)c(SCC(=O)Nc3ccccc3C)nc(C)c2C(=O)Nc2ccccc2)cc1OC`, the Potency was inconclusive: 7.94 µM [activator, single point].
With `NC(=O)C1CCN(C(=O)CSCc2ccccc2Cl)CC1` the max response, negative = inhibition was inactive: -10%.
`CC(=O)c1cccc(NC(=O)Cn2c(SCC(=O)Nc3ccc(F)cc3)nc3ccccc32)c1` was tested, and the Potency was inconclusive: 25.1 µM [activator, partial curve, poor fit].
For `CCCCOc1ccc(C2c3c(-c4ccccc4O)n[nH]c3C(=O)N2Cc2ccncc2)cc1OC` (stereo not given), the Potency was inconclusive: 39.8 µM [activator, single point].
In the case of `CCOC(=O)c1sc(NC(=O)CSc2nc(C)cc(-c3ccccc3)n2)c(C#N)c1C`, the Potency was inconclusive: 31.6 µM [inhibitor, single point].
`CCCSCCCNC(=O)C1CCN(C(=O)c2cc3sccc3n2C)CC1` was tested, and the Potency was inconclusive: 39.8 µM [activator, single point].
For `Nc1c(C(=O)NCc2ccco2)c2nc3ccccc3nc2n1Cc1ccccc1`, the Potency was inconclusive: 20 µM [activator, single point].
For `Cc1ccccc1Cn1c(SCc2ccc(C(=O)NCc3cccs3)cc2)nc2ccncc21`, the max response, negative = inhibition was inconclusive: 30.1% [activator].
With `COc1cc(Cl)c(C)cc1NC(=O)COc1ccccc1[N+](=O)[O-]` the Potency was inconclusive: 25.1 µM [inhibitor, single point].
`Cc1ccc(S(=O)(=O)NC(CC(=O)O)c2ccccc2)c(C)c1` (stereo not given) was tested, and the max response, negative = inhibition was inactive: 8.61%.
With `CCOc1ccc(C(=O)c2cn(CC(=O)Nc3cc(OC)cc(OC)c3)c3ccc(F)cc3c2=O)cc1` the Potency was inconclusive: 6.31 µM [activator, single point].
For `O=C(CSc1nnc(Cc2ccccc2)n1-c1ccc(Cl)cc1)N1CCOCC1`, the Potency was inconclusive: 31.6 µM [activator, single point].
For `O=C(COC(=O)CSc1cccc2cccc(Cl)c12)Nc1ncc(C(F)(F)F)cc1Cl`, the Potency was active: 25.1 µM.
With `CCCC[C@@H]1C[C@H]1C(NC(=O)c1ccc(-c2ccccc2)cc1)c1ccc(-c2ccccc2)cc1` (stereo not given in full) the Potency was inconclusive: 3.16 µM [inhibitor, single point].
For `O=C(CCn1c(=O)c2cccn2c2ccc(F)cc21)NCc1ccccc1F`, the max response, negative = inhibition was inactive: 4.5%.
`O=C(Nc1ccc(N2CCN(Cc3ccccc3)CC2)cc1)c1cccnc1` was tested, and the Potency was inconclusive: 39.8 µM [activator, single point].
`Cc1cccc(NC(=O)Cn2c(=O)n(Cc3ccc(C(=O)NCc4ccc5c(c4)OCO5)cc3)c(=O)c3ccccc32)c1` was tested, and the Potency was active: 3.98 µM.
In the case of `Oc1csc(Cc2nc(-c3ccc(-c4ccccc4)cc3)cs2)n1`, the Potency was active: 10 µM.
For `CN1/C(=C\C(=O)CSc2nnc(N)s2)C(C)(C)c2ccccc21`, the Potency was inconclusive: 39.8 µM [inhibitor, single point].
In the case of `CC(=O)c1cccc(NC(=O)CCc2c(C)nc3c(-c4ccc(F)cc4)c(C)nn3c2C)c1`, the max response, negative = inhibition was inactive: -4.93%.
`Cc1occc1-c1nnc(SCC(=O)NCc2ccco2)n1CC(C)C` was tested, and the Potency was inconclusive: 31.6 µM [activator, single point].
With `N[C@@]1(C(=O)O)CO[C@H]2[C@H](C(=O)O)[C@H]21` the max response, negative = inhibition was inactive: -2.84%.
For `CC1(C)Cc2c(c(N3CCOCC3)nc3sc4c(=O)[nH]cnc4c23)CS1`, the Potency was inconclusive: 39.8 µM [activator, single point].
`CC(=O)N1CCN(C(=S)c2ccc(-c3ccc(Cl)cc3)o2)CC1` was tested, and the Potency was inconclusive: 3.16 µM [inhibitor, single point].
For `O=C(CNC(=O)c1ccco1)OC(C(=O)c1ccccc1)c1ccccc1` (stereo not given), the Potency was active: 7.94 µM.
With `COc1ccccc1OCCCn1c(C2CC(=O)N(c3ccccc3Cl)C2)nc2ccccc21` (stereo not given) the Potency was inconclusive: 31.6 µM [activator, single point].
With `O=C(O)CCC/C=C\C[C@@H]1[C@@H](/C=C/[C@@H](O)COc2cccc(Cl)c2)[C@H](O)C[C@@H]1O` the Potency was inconclusive: 31.6 µM [activator, single point] and inconclusive: 39.8 µM [activator, single point].
`CC(=O)OC1CC2C(C)(C)C(=O)C=C[C@]2(C)C2CC[C@]3(C)C(=CC(=O)OC3c3ccoc3)[C@]12C` (stereo not given in full) was tested, and the Potency was inconclusive: 25.1 µM [activator, single point].
For `COc1ccc(Br)cc1CNC(=O)Nc1cccs1`, the Potency was inconclusive: 39.8 µM [inhibitor, single point].
In the case of `Cc1nc(-c2ccc(Cl)cc2)sc1CCNC(=O)c1ccco1`, the max response, negative = inhibition was inactive: -8.92%.
`COc1ccccc1N(C(=O)CN1C(=O)c2ccccc2S1(=O)=O)C(C(=O)NCC1CCCO1)c1ccc(F)cc1` (stereo not given) was tested, and the Potency was inconclusive: 39.8 µM [activator, single point].
In the case of `Cc1ccc(C)c(N2CCN(C(=O)CCCn3ncn4c(cc5occc54)c3=O)CC2)c1`, the Potency was inconclusive: 31.6 µM [activator, single point].
`O=C(Nc1ccccc1)c1nn(-c2ccccc2)c(=O)cc1C(F)(F)F` was tested, and the Potency was inconclusive: 25.1 µM [inhibitor, single point].
`CC1(CCc2ccc(O)cc2)NC(=O)NC1=O` (stereo not given) was tested, and the max response, negative = inhibition was inactive: 2.39%.
For `COc1ccc(Cn2cc(C(=O)c3ccc(OC)cc3)c(=O)c3cc4c(cc32)OCCO4)cc1`, the max response, negative = inhibition was inactive: 6.71%.
For `CC(=O)c1cccc(NC(=O)C(Cc2ccccc2)NS(=O)(=O)c2ccc(Br)s2)c1` (stereo not given), the max response, negative = inhibition was inactive: 19.5%.
`CCOc1ccc(CC2S/C(=N/c3ccccn3)NC2=O)cc1` (stereo not given) was tested, and the Potency was inconclusive: 39.8 µM [inhibitor, single point].
With `Cc1c2cnn(-c3ccccc3)c(=O)c2c(C)n1CC(=O)NCc1ccccc1Br` the max response, negative = inhibition was inactive: 8.95%.
`COc1ccc(Nc2nc(N)nc(COc3ccc(OC)cc3)n2)cc1` was tested, and the Potency was inconclusive: 25.1 µM [inhibitor, single point].
